# Assay results reported in the supplement of paper PMC7826260.
# Some of the results follow. The data describe in vitro nicking of single-stranded DNA by Rep domains at 3 µM enzyme and 37 °C for 1 h; the strands have 90 letters, of which the middle is given. The score is log2 (uncut reads / reads without enzyme); strong cutting gives strongly negative numbers. There is no active / inactive call. Reads are scaled to the total; values above 0 arise when much of the pool is cut.
# Legend:
# Experiment in all cases: uncleaved DNA left, log2 of reads against the no-enzyme library (log2 ratio); higher = less cleavage (more negative = more Rep cleavage of the k-mer); sequences stand for … in CTCGTCCG…ACCGGAGA
# [1] = tested on: T1, Rep nickase domain of Muscovy duck circovirus
# T1 sequence (protein, residues 1-111, tag omitted): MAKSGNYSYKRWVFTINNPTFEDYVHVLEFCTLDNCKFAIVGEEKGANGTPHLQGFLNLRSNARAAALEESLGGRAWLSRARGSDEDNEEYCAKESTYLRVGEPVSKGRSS
# Method: (§1)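 A pool of 90-nt single-stranded DNAs with seven random bases just before the constant AC of the nick site (name = the seven bases) was cut by 3 µM recombinant His6-SUMO-tagged Rep nickase domain (300 nM DNA, 50 mM HEPES pH 8.0, 50 mM NaCl, 1 mM MnCl2, 1 h, 37 °C, three replicates). Uncut DNA was amplified and sequenced.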
# [2] = tested on: T2, Rep nickase domain of banana bunchy top virus
# T2 sequence (protein, residues 1-94, tag omitted): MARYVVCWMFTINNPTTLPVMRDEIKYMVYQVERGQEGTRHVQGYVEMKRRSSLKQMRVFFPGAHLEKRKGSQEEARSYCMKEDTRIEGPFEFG
# Method: as §1
# [3] = tested on: T3, Rep nickase domain of cabbage leaf curl virus
# T3 sequence (protein, residues 1-116, tag omitted): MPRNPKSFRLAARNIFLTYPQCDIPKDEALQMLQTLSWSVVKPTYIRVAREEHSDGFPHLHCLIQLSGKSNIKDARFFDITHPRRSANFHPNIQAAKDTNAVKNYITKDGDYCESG
# Method: as §1
# [4] = tested on: T4, Rep nickase domain of chickpea chlorotic dwarf virus
# T4 sequence (protein, residues 1-124, tag omitted): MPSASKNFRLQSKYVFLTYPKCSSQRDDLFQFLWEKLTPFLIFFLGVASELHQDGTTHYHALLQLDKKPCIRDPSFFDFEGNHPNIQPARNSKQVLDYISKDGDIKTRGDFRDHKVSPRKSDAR
# Method: as §1
# [5] = tested on: T5, Rep nickase domain of faba bean necrotic yellows virus
# T5 sequence (protein, residues 1-98, tag omitted): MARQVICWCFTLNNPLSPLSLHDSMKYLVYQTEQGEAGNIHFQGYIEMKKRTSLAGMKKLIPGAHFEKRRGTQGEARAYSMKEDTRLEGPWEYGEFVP
# Method: as §1
# [6] = tested on: T6, Rep nickase domain of maize striate mosaic virus
# T6 sequence (protein, residues 1-117, tag omitted): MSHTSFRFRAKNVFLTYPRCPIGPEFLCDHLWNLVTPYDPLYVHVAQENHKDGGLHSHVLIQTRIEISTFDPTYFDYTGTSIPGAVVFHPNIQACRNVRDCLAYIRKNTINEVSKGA
# Method: as §1
# [7] = tested on: T7, Rep nickase domain of porcine circovirus 2
# T7 sequence (protein, residues 2-116, tag omitted): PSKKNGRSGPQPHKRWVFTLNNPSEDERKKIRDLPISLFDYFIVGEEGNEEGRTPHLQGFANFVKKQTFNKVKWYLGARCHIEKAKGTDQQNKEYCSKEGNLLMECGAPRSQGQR
# Method: as §1
# [8] = tested on: T8, Rep nickase domain of tomato yellow leaf curl virus
# T8 sequence (protein, residues 1-136, tag omitted): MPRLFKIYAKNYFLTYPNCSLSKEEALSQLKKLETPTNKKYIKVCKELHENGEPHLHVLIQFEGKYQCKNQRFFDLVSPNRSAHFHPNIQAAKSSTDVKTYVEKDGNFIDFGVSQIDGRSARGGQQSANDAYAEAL
# Method: as §1
# [9] = tested on: T9, Rep nickase domain of wheat dwarf virus
# T9 sequence (protein, residues 1-137, tag omitted): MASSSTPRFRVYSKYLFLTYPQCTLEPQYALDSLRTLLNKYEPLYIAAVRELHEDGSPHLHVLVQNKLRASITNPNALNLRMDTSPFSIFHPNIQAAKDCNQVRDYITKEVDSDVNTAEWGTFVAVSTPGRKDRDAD
# Method: as §1
Sequence,uncleaved DNA left (log2) [1],uncleaved DNA left (log2) [2],uncleaved DNA left (log2) [3],uncleaved DNA left (log2) [4],uncleaved DNA left (log2) [5],uncleaved DNA left (log2) [6],uncleaved DNA left (log2) [7],uncleaved DNA left (log2) [8],uncleaved DNA left (log2) [9]
CCTAGAT,0.0399,0.0225,0.193,0.475,-0.114,0.599,-0.0286,-0.205,0.0539
CCGGAAA,-0.06,0.00324,0.166,0.385,-0.128,0.13,0.0776,-0.0893,-0.127
GTCGACA,0.0419,0.0741,0.387,1.05,-0.0525,1.75,0.0639,-0.0447,0.0879
GCAGGTA,0.0527,-0.0282,0.103,0.586,-0.0348,0.638,0.0321,0.0543,-0.0222
CATCCAC,0.088,-0.00627,-0.116,-0.421,0.0237,-0.783,0.0445,0.0196,0.0476
CAATTCG,0.0866,-0.0562,-0.556,0.934,0.0451,-0.044,0.178,0.0902,-0.00458
CTATCGG,-0.000639,-0.027,0.487,1.41,-0.0548,1.57,0.065,-0.0293,-0.00858
ACTTAGC,-0.0727,0.00695,-0.666,-0.593,0.0478,-1.33,-0.0148,-0.0572,-0.0684
AGCTTCC,-0.0825,-0.00595,0.124,0.302,-0.0966,0.121,-0.731,-0.034,0.0551
TGTCCAG,-0.115,-0.0523,-0.573,-0.656,-0.182,-1.17,-0.0322,-0.0723,-0.186
ATGCACT,-0.124,-0.142,-0.293,-1.35,-0.202,-0.37,-0.276,-0.104,-0.254
TAAGCTC,-0.058,0.0176,-2.18,-2.55,-0.052,0.136,0.0716,-0.0465,-0.697
AGACTCC,-0.042,0.0227,0.676,1.47,-0.0362,1.9,-0.013,-0.0716,0.0814
ACAGGGA,0.0628,-0.023,-0.0146,0.415,-0.0767,-0.4,0.153,-0.0767,-0.0329
AACTGAA,0.0251,0.165,0.144,0.522,0.126,0.817,-1.87,0.0379,0.178
TAGGTGT,0.000268,-0.0448,0.08,-0.0207,-0.00937,0.501,-0.986,-0.109,-0.0266
ACGACGA,-0.185,-0.175,-0.293,-0.0566,-0.12,-0.609,-0.0618,-0.139,-0.0532
AAATCAG,0.000518,0.0347,-0.731,-0.192,-0.00386,-1.17,0.244,0.0699,0.0105
ACATGTG,0.26,0.125,-0.404,0.863,0.153,0.042,0.307,0.179,-0.0326
ACAAATG,0.0932,0.106,-0.565,-0.337,-0.012,-1.02,0.196,0.0996,0.0754

Sequence,uncleaved DNA left (log2) [1],uncleaved DNA left (log2) [2],uncleaved DNA left (log2) [3],uncleaved DNA left (log2) [4],uncleaved DNA left (log2) [5],uncleaved DNA left (log2) [6],uncleaved DNA left (log2) [7],uncleaved DNA left (log2) [8],uncleaved DNA left (log2) [9]
TTACGTG,-0.164,-0.0415,-0.712,-1.24,-0.107,-1.2,0.0337,-0.0398,-0.194
ACCACAG,-0.0249,0.042,-0.427,0.305,0.053,-0.443,0.269,0.0366,0.0416
AAAGCGA,0.0321,-0.0234,-0.673,-0.175,-0.0859,-0.95,0.159,-0.0471,-0.109
CAGAGTC,-0.0372,-0.0723,-0.0834,-0.165,-0.00305,-0.715,-0.0208,-0.0461,0.0695
CAAAAGT,-0.0608,0.0156,-0.901,-2.63,0.038,-1.09,-0.317,0.0189,-0.281
TTACATG,-0.015,-0.0249,-0.64,-1.63,0.026,-1.12,0.0615,0.0167,-0.059
TGCCGGA,-0.0239,0.0418,0.118,0.422,-0.001,0.0629,0.0611,0.0753,-0.0514
GATGCCC,-0.142,-0.0705,0.0202,0.342,-0.0939,0.167,-0.0721,0.0465,-0.102
GCATAAA,-0.0516,0.0315,0.0774,0.397,0.0127,-0.196,0.0871,0.0982,0.148
CACAGAA,-0.0208,-0.0143,-0.117,-0.496,-0.0816,-0.791,-0.025,-0.155,-0.0638
ATGATGT,-0.0302,-0.107,-0.0833,-0.168,-0.0935,-0.606,-0.022,-0.27,-0.0522
ACCTTAT,-0.0265,0.0757,-0.0896,-0.824,0.0339,-0.664,-1,-0.05,0.0271
AGCTAGC,-0.00789,-0.0176,-0.0546,0.102,-0.0201,-0.664,-0.0319,0.0222,-0.137
GGTCTGA,0.046,0.117,0.602,1.28,-0.0153,1.87,0.0907,0.104,0.164
GAACAAT,0.124,0.0618,0.555,0.569,0.0195,1.7,-0.009,0.0451,0.221
GAGTCTA,9.44e-05,-0.0491,0.261,-0.665,-0.118,1.24,-2.39,0.129,0.107
TTCCCCA,0.0233,-0.039,0.221,-0.466,0.0392,-0.00242,-0.477,0.113,0.125
TGACGTA,0.0959,0.0447,0.0888,0.129,0.0552,0.743,-0.0147,0.0481,0.0333
GTATGAA,0.0737,0.0347,0.273,0.796,-0.033,1.45,0.05,0.0954,0.137
GGTACTA,0.0171,0.0716,0.708,1.61,0.0346,2.14,0.0883,0.128,0.192

Sequence,uncleaved DNA left (log2) [1],uncleaved DNA left (log2) [2],uncleaved DNA left (log2) [3],uncleaved DNA left (log2) [4],uncleaved DNA left (log2) [5],uncleaved DNA left (log2) [6],uncleaved DNA left (log2) [7],uncleaved DNA left (log2) [8],uncleaved DNA left (log2) [9]
CAAGATT,-0.208,-0.156,-2.38,-2.36,0.1,-0.189,-0.993,-0.167,-0.645
ACATCAC,-0.0854,-0.128,-0.527,-0.963,-0.0945,-0.948,0.0456,-0.242,-0.174
GAACACG,-0.0499,-0.0798,-0.721,-0.413,-0.00399,-0.747,0.216,0.0153,-0.088
TGTTATC,-0.0017,0.0257,0.273,0.555,-0.173,0.926,-0.0693,0.0543,-0.052
GTGTCCC,-0.0758,0.026,0.232,0.759,-0.0543,1.82,-0.0226,-0.0117,-0.0171
AAGCTAA,0.0312,0.0606,0.12,0.291,0.102,0.687,0.0732,0.0154,0.176
GACGAGT,-0.0917,0.0146,0.17,0.58,-0.0507,0.551,-0.178,-0.0412,-0.0384
TCCGTGG,-0.0672,0.024,0.249,0.665,-0.0162,0.603,0.0473,-0.0923,-0.0083
GTCTCTA,0.114,0.0328,0.358,0.775,0.0168,1.77,0.0988,0.0577,0.111
CAGATCT,0.0383,-1.58,-0.694,-2.84,-0.778,-0.501,-3.35,0.0257,-0.0601
ATGGGGC,0.0854,0.00805,0.531,1.14,0.144,1.01,0.342,0.165,0.0011
CGTCTAG,0.0119,0.0372,-0.386,-0.271,0.162,-0.91,0.239,-0.0768,0.0182
GTACTGC,0.024,0.00945,-0.00139,0.314,-0.0491,0.377,0.0568,-0.0444,0.031
CAAGGAC,0.0166,0.132,0.279,1.2,0.0289,1.13,0.104,0.0356,0.108
GTGGGTC,-0.0565,-0.0468,0.248,0.88,-0.138,1.86,-0.00384,-0.0521,-0.0421
GGTCGCG,0.0078,0.0371,-0.678,0.593,0.0634,-0.294,0.105,0.0775,-0.0446
TATGACC,0.0482,-0.0139,0.103,0.309,-0.114,0.595,0.0556,0.023,0.0316
CTCAAGC,0.0964,0.0595,-0.062,-0.197,0.169,-0.949,0.0802,0.0225,0.142
TTAGCTC,0.039,-0.0295,0.0854,-0.453,-0.0172,-0.469,-0.0494,-0.0203,-0.116
AAATTTA,-0.484,0.000692,-1.61,-2.63,-0.106,-1.06,-1.76,-0.0527,-0.472
